# Reference: PubChem BioAssay AID624296 (National Center for Advancing Translational Sciences (NCATS), 2012)
# In all, about 350,000 compounds went through this assay and about 9,900 (2.8%) were called active. The inconclusive results got no clear call from the source; some entries with a clear call stand among them for comparison. The call rests on the fitted dose curve; in most records, active means well fitted activation curve with a large enough effect; inconclusive means small, poorly fitted or top-dose-only effect; inactive means no such curve, though single readings can be large or run the other way. No potency is given beside an inconclusive call; the fits are too rough. More than one record can exist for a structure, and the calls need not agree.
# Test: A quantitative high throughput screen for small molecules that induce DNA re-replication in MCF 10a normal breast cells. Further: nearly all actives have a fitted effect of over 50% in size. On activity, positive = re-replication: % of control where 0% means no effect.
# Details: MCF 10A DNA re-replication, Hoechst nuclear intensity, 48 h
# [1] = activity, positive = re-replication: at 46.1 µM (top of the series)
# Potency means the concentration at half of the fitted maximal effect; tags describe the fitted curve by direction and shape.
compound,measurement,setting,value
COc1ccc(/C=N/NC(=S)Nc2ccccc2)cc1COc1ccc(F)cc1,Potency,[1],"inconclusive [activator, single point]"
CCCCCC/C(C)=C1/SC(=S)NC1=O,Potency,[1],"inconclusive [activator, single point]"
Cc1ccc(SCC(=O)OCc2csc(CC(=O)Nc3ccccc3C)n2)cc1C,Potency,[1],"inconclusive [activator, single point]"
COc1ccc(C(=O)/C=C(\N)C(F)(F)F)c(O)c1,Potency,[1],inactive
Cc1c(O)c(CN2CCCCC2)cc2c3c(c(=O)oc12)CCC3,Potency,[1],"inconclusive [activator, partial curve, poor fit]"
Cc1cnc(NC(=O)CCCc2nc3ccccc3s2)s1,Potency,[1],"inconclusive [activator, single point]"
CN1/C(=C\C(=O)c2cccs2)Sc2ccccc21,Potency,[1],active: 18.4 µM
CCC(=O)NC(=S)Nc1ccc(NC(=O)c2ccc(C)c([N+](=O)[O-])c2)cc1,Potency,[1],"inconclusive [activator, partial curve]"
Cc1c(NC(=O)c2cc(Br)ccc2Cl)cccc1-n1cnnn1,Potency,[1],inactive
Cc1ccc(C(=O)NC(=S)N2CCN(c3ccccc3F)CC2)cc1,Potency,[1],inactive
Nc1cc(=O)[nH]c(SCC(=O)Nc2ccc(S(=O)(=O)N3CCCC3)cc2)n1,Potency,[1],inactive
COc1ccccc1CNC(=O)CN1C(=O)NC(C)(c2ccc(C)cc2)C1=O (centres undefined),Potency,[1],inactive
CCNC(=S)N(CCc1c(C)[nH]c2ccc(Cl)cc12)Cc1ccco1,Potency,[1],"inconclusive [activator, partial curve, poor fit]"
COc1ccc2c(C=Nc3c(C)n(C)n(-c4ccccc4)c3=O)c(O)n(Cc3ccco3)c(=O)c2c1,Potency,[1],active: 18.4 µM
Cc1nnc2ccc(-c3cccc(NS(=O)(=O)c4cc(F)ccc4F)c3)nn12,Potency,[1],"inconclusive [activator, partial curve]"
NS(=O)(=O)c1cc2c(cc1C(F)(F)F)N[C@H](Cc1ccccc1)NS2(=O)=O,Potency,[1],inactive
CC(=O)OCCCNc1cc(SCc2ccco2)c2nonc2c1[N+](=O)[O-],Potency,[1],"inconclusive [activator, single point]"
Cc1ccc(NC(=O)c2cc(N3C(=O)C=CC3=O)ccc2N2CCOCC2)cc1,Potency,[1],active: 13 µM
Cc1cc(NC(=O)COC(=O)c2cc(S(=O)(=O)N3CCOCC3)ccc2N2CCCCC2)no1,Potency,[1],"inconclusive [activator, partial curve, poor fit]"
O=S(=O)(NCCC1=CCCCC1)c1cccc(S(=O)(=O)N2CCOCC2)c1,Potency,[1],inactive
CCOP(=O)(OCC)c1nc(-c2cccc3ccccc23)oc1NCc1ccc(OC)cc1,Potency,[1],"inconclusive [activator, partial curve, poor fit]"
O=C1NCCN(CC2CCN(CCC3CCCC3)CC2)C1=O,Potency,[1],"inconclusive [activator, full curve, poor fit]"
O=S(=O)(NN=C1CCCCCC1)c1ccccc1,Potency,[1],inactive
CN1CCC(N(C)C(=O)/C(C#N)=C/c2ccc(OC(F)F)cc2)CC1,Potency,[1],inactive
COc1ccc(/C=N/NC(=O)c2[nH]c(C)c(C(=O)N/N=C/c3ccc(OC)cc3)c2C)cc1,Potency,[1],"inconclusive [activator, full curve, poor fit]"
CCOC(=O)c1c(C)c(C(=O)N2CCN(c3ccc(F)cc3)CC2)c(C)n1C,Potency,[1],"inconclusive [activator, single point]"
COc1ccc(CN(CC(=O)NC(C)C)C(=O)CCC(=O)Nc2nccs2)cc1,Potency,[1],inactive
Cc1ccc(C(=O)Nc2cccc(N(C)S(C)(=O)=O)c2)cc1S(=O)(=O)Nc1ccccc1,Potency,[1],"inconclusive [activator, single point]"
N#Cc1ccc(C(=O)Nc2nnc(-c3ccco3)o2)cc1,Potency,[1],inactive
COc1ccc(-c2cc(=O)[nH]c(=S)[nH]2)cc1,Potency,[1],inactive
O=C(NNc1nc2cc3c(cc2s1)OCCO3)c1ccc(F)cc1,Potency,[1],active: 0.259 µM
COc1cccc(N2[C@@H](CC(=O)O)c3ccc(/C=C/C(=O)O)cc3S2(=O)=O)c1,Potency,[1],inactive
O=C(NCC(c1ccco1)N1CCc2ccccc21)c1c(F)cccc1F (centres undefined),Potency,[1],"inconclusive [activator, partial curve, poor fit]"
CC1=C(c2ccc(C)cc2)[N+](=O)C(C)(C)N1[O-],Potency,[1],inactive
COc1ccc(Cl)cc1NC(=O)C(C)OC(=O)c1ccc(NS(=O)(=O)c2ccc3[nH]c(=O)[nH]c3c2)cc1 (centres undefined),Potency,[1],"inconclusive [activator, single point]"
O=C(NNS(=O)(=O)c1ccc(F)cc1)c1cnn(-c2ccccc2)c1C(F)(F)F,Potency,[1],inactive
CN(CC(=O)Nc1ccc(F)cc1)C(=O)c1cc(-c2cccs2)nn1-c1ccccc1,Potency,[1],"inconclusive [activator, single point]"
O=S(=O)(c1ccc(Br)cc1)N1CCCN(Cc2cccc(F)c2)CC1,"activity, positive = re-replication",[1],inconclusive: -130% [activator]
same,"activity, positive = re-replication",at 46.1 µM (top of the series),inactive: 15.6%
Cc1nnc2n1N=C(c1ccccc1)CS2,Potency,[1],inactive
CCCCSc1nnc(-c2ccc(C)cc2)c2ccccc12,Potency,[1],"inconclusive [activator, single point]"
CC(C)NS(=O)(=O)c1ccc(OCC(=O)N2CCN(c3ccccc3)CC2)cc1,Potency,[1],inactive
CC(C)NC(=O)c1sc2nc3c(c(-c4cccs4)c2c1N)CN(C)CC3,Potency,[1],inactive
Cc1ccc(OCn2c(=O)sc3ccccc32)cc1,Potency,[1],"inconclusive [activator, partial curve, poor fit]"
c1cnc2nc3c4ccccc4c4ccccc4c3nc2c1,Potency,[1],active: 10.3 µM
Cc1cnccc1CN(C)Cc1cn(C)nc1-c1cccc(Cl)c1,Potency,[1],"inconclusive [activator, single point]"
CCCN1CCN(CCCNC(=O)c2cc3c(=O)n(C)c4ccccc4c3n2C)CC1,Potency,[1],"inconclusive [activator, single point]"
COc1ccc(C2OC34CCCCC3C(C#N)(C#N)C2(C#N)C(=N)O4)cc1 (centres undefined),Potency,[1],inactive
CCCSCCCNC(=O)c1ccc(NC(=O)C2=CSCCO2)cc1,Potency,[1],inactive
S=c1[nH]nc(-c2cc(-c3ccccc3)n[nH]2)n1/N=C/c1ccc(Cl)cc1,Potency,[1],"inconclusive [activator, single point]"
Clc1cccc(-c2ccc3ncnc(NCc4cccs4)c3c2)c1,Potency,[1],"inconclusive [activator, full curve, poor fit]"
Cc1ccc(NC(=O)CSc2nc3c(c(=O)[nH]2)CN(Cc2ccc(F)cc2)CC3)cc1C,Potency,[1],"inconclusive [activator, single point]"
CC1(C)C[C@H](O)[C@]2(CO)[C@H](O)C[C@]3(C)C(=CCC4[C@@]5(C)CC[C@H](O)C(C)(C)C5CC[C@]43C)[C@@H]2C1 (some centres undefined),Potency,[1],"inconclusive [activator, full curve, poor fit]"
O=C(/C=C/c1ccccc1)NC(=S)Nc1ccc2c3c(cccc13)CC2,Potency,[1],"inconclusive [activator, full curve, poor fit]"
Cc1cc(C)c2nc(N3CCC(C(=O)NCCCN4CCCCC4)CC3)sc2c1,Potency,[1],"inconclusive [activator, partial curve]"
CC(C)(C)C1CCc2c(sc(NC(=O)c3cccs3)c2C(=O)N2CCCCC2)C1 (centres undefined),Potency,[1],"inconclusive [activator, full curve, poor fit]"
Cc1cccc(-n2ncc3c(N4CCCC4)ncnc32)c1,Potency,[1],inactive
COc1cccc2cc(-c3nnc(SCC(=O)NCCc4ccccc4)n3C)oc12,Potency,[1],"inconclusive [activator, partial curve, poor fit]"
Cc1ccc(C2CC(c3cccs3)=NN2C(=O)CCl)cc1 (centres undefined),Potency,[1],"inconclusive [activator, partial curve]"
O=C(Nc1nc2ccc(S(=O)(=O)N3CCOCC3)cc2s1)c1cccs1,Potency,[1],"inconclusive [activator, single point]"
CCOc1ccc(C(=O)NC(=S)Nc2ccc(N3CCCCC3)cc2)cc1[N+](=O)[O-],Potency,[1],"inconclusive [activator, partial curve, poor fit]"
Fc1ccc(-n2nnnc2-c2cnc(-c3cccs3)nc2C(F)(F)F)cc1,Potency,[1],active: 14.6 µM
CN1CCN(C2=C(Cl)C(=O)C(c3cnc(N4CCCCC4)s3)=C(Cl)C2=O)CC1,Potency,[1],"inconclusive [activator, partial curve, poor fit]"
COc1ccc(CN2c3c(Br)cccc3C(=O)CS2(=O)=O)cc1,Potency,[1],"inconclusive [activator, partial curve]"
CCOc1ccc(CC2c3cc(OCC)c(OCC)cc3CCN2C(=O)c2cc(OC)c(OC)c(OC)c2)cc1OCC (centres undefined),Potency,[1],"inconclusive [activator, single point]"
CCOC(=O)c1sc(NC(=O)c2ccc(S(=O)(=O)N3CCCCC3)cc2)nc1-c1ccccc1,Potency,[1],inactive
CCC(CC)N1CCN(Cc2nc3ccc([N+](=O)[O-])cc3c(=O)n2-c2ccccc2F)CC1,Potency,[1],"inconclusive [activator, single point]"
COc1ccc(C(=O)NC(=S)Nc2ccc(N3CCOCC3)cc2)cc1Cl,Potency,[1],"inconclusive [activator, partial curve]"
COC(=O)c1sccc1NC(=S)N1CCN(c2cc(C)ccc2C)CC1,Potency,[1],"inconclusive [activator, partial curve, poor fit]"
